# Data taken from the RNAGym collection of RNA variant scans (doi:10.7554/elife.90254).
# The source gives no read counts; variants with many changes may rest on few reads.
# B1: LINE1-mini (parent)
# chain: GGCAGAGCUCAACACAGCGUGGCAAAGUGGCUGUGGCUAGACUGCC
# Variants of: B1
# Test: self-cleavage, relative activity (ratio to wild type); higher = more cleavage; in vitro, sequencing; the parent is a self-cleaving ribozyme
row,Variant,self-cleavage
1,GGCAGAGCUCAACACAGCGUGGCAAAGUGGCUGUGGCUAGACUAUG [G44A C45U C46G],0.18
2,GGCAGAGCUCAACACAGCGUGGCAAAGUGGCUGUGGCUACAAUACC [G40C C42A G44A],0.01
3,GGCAGAGCUCAACACAGCGUGGCAAAGUGGCUGUGGCUAAUCUGCA [G40A A41U C46A],0.19
4,GGCAGAGCUCAACACAGCGUGGCAAAGUGGCUGUGGCUACAGUGCG [G40C C42G C46G],0.05
5,GGCAGAGCUCAACACAGCGUGGCAAAGUGGCUGUGGCUAGCCGGCG [A41C U43G C46G],0.02
6,GGCAGAGCUCAACACAGCGUGGCAAAGUGGCUGUGGCUAGAGUACG [C42G G44A C46G],0.03
7,GGCAGAGCUCAACACAGCGUGGCAAAGUGGCUGUGGCUAGAAUUCU [C42A G44U C46U],0.04
8,GGCAGAGCUCAACACAGCGUGGCAAAGUGGCUGUGGCUAGGUUGCG [A41G C42U C46G],0.02
9,GGCAGAGCUCAACACAGCGUGGCAAAGUGGCUGUGGCUAUACGACC [G40U U43G G44A],0.05
10,GGCAGAGCUCAACACAGCGUGGCAAAGUGGCUGUGGCUAUAAUACC [G40U C42A G44A],0.04
11,GGCAGAGCUCAACACAGCGUGGCAAAGUGGCUGUGGCUAGACAGAA [U43A C45A C46A],0.03
12,GGCAGAGCUCAACACAGCGUGGCAAAGUGGCUGUGGCUAGUCUCAC [A41U G44C C45A],0.14
13,GGCAGAGCUCAACACAGCGUGGCAAAGUGGCUGUGGCUAGAUAGUC [C42U U43A C45U],0.01
14,GGCAGAGCUCAACACAGCGUGGCAAAGUGGCUGUGGCUAGAGUCAC [C42G G44C C45A],0.05
15,GGCAGAGCUCAACACAGCGUGGCAAAGUGGCUGUGGCUACAGUUCC [G40C C42G G44U],0.09
16,GGCAGAGCUCAACACAGCGUGGCAAAGUGGCUGUGGCUACACUGAU [G40C C45A C46U],0.08
17,GGCAGAGCUCAACACAGCGUGGCAAAGUGGCUGUGGCUAGCUCGCC [A41C C42U U43C],0.04
18,GGCAGAGCUCAACACAGCGUGGCAAAGUGGCUGUGGCUAUGCUCCC [G40U A41G G44C],0.08
19,GGCAGAGCUCAACACAGCGUGGCAAAGUGGCUGUGGCUAGUCGGUC [A41U U43G C45U],0.14
20,GGCAGAGCUCAACACAGCGUGGCAAAGUGGCUGUGGCUAUUCUGGC [G40U A41U C45G],0.54
21,GGCAGAGCUCAACACAGCGUGGCAAAGUGGCUGUGGCUAGACUUUU [G44U C45U C46U],0.2
